# Measurements as given in the supplement of paper PMC5919970.
# Where a name gives a salt, the structure may show the parent alone. In all, about 2,000 compounds were measured (“fractional viability relative to vehicle”: median about 0.91, lowest 2% from about 0.045 on). Some of the results follow.
# Tested on: TYKNU
# Test: fractional viability relative to vehicle; TYKNU is a high-grade serous ovarian cancer line; higher = less growth inhibition
# Conditions: 72 h
# Procedure, shortened: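 Drug treatment lasted 72 h, with cells grown at 37 °C in 5% CO2 in RPMI 1640 supplemented with 10% FBS. Beforehand, TYKNU control cells or their lentiCRISPRv2 knockout derivatives had been seeded at 500 cells per well into drug-stamped 384-well plates carrying a ~2100-compound library at 2 or 10 μM, in duplicate. Viability came from Cell Titer Glo luminescence, with averaged duplicate treatment wells normalised to duplicate control wells in the same plate position.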
# [1] = 2uM, genotype: DNM1L knockout (sgDNM1L #1)
# [2] = 2uM, genotype: sgCTRLA1 (non-targeting control)
# [3] = 10uM, genotype: DNM1L knockout (sgDNM1L #1)
# [4] = 10uM, genotype: sgCTRLA1 (non-targeting control)
Compound,fractional viability [1],fractional viability [2],fractional viability [3],fractional viability [4]
O=c1oc2cc(O)ccc2s1 [Tioxolone],0.912,1.25,0.872,1.16
COc1cc2ncnc(Nc3cccc(Cl)c3)c2cc1OC [AG-1478 (Tyrphostin AG-1478)],1.49,1.16,0.0996,0.169
CCn1c(-c2nonc2N)nc2c(C#CC(C)(C)O)ncc(OC[C@H]3CCCNC3)c21,0.989,0.936,0.856,0.967
O=S(=O)(O)Oc1ccc(C(c2ccc(OS(=O)(=O)O)cc2)c2ccccn2)cc1 [Sodium Picosulfate],1.05,1.1,0.923,1.01
CCC[C@H](N[C@H]1CCc2cc(F)cc(F)c2C1)C(=O)Nc1cn(C(C)(C)CNCC(C)(C)C)cn1,0.725,0.914,0.899,0.679
CN1C(=O)C(Cc2c[nH]c3ccccc23)NC1=S (configuration not stated) [Necrostatin-1],0.738,0.974,0.845,0.828
Cc1cc2c(s1)Nc1ccccc1N=C2N1CCN(C)CC1 [Olanzapine],1.14,1.11,0.874,1.04
Cc1ccc(NC(=O)C2(c3ccc4c(c3)OC(F)(F)O4)CC2)nc1-c1cccc(C(=O)O)c1 [VX-809 (Lumacaftor)],0.94,1.12,0.933,1.06
CNC(=O)c1ccc(Nc2ncc(C(F)(F)F)c(NCc3nccnc3N(C)S(C)(=O)=O)n2)cc1,0.702,0.772,0.213,0.179
Cn1cc(/C=C2\C(=O)Nc3cccnc32)c2ccccc21,1.42,1.27,0.871,0.936
CC(C)OC(=O)C(C)(C)Oc1ccc(C(=O)c2ccc(Cl)cc2)cc1 [Fenofibrate],1,1,0.829,0.922
OCCOc1ccc(/C(=C(/CCCl)c2ccccc2)c2ccccc2)cc1 [Ospemifene],0.655,0.988,0.492,0.754
CCN1C[C@H](C)n2c(c(O)c3c(=O)n(Cc4ccc(F)c(Cl)c4)nc(C(=O)NC)c32)C1=O,1.07,1.2,0.793,1.12
CC(=O)c1c(C)c2cnc(Nc3ccc(N4CCNCC4)cn3)nc2n(C2CCCC2)c1=O,0.736,0.864,0.6,0.445
CNC(=O)c1cc(Oc2ccc3nc(N[C@@H]4CCCC[C@H]4O)sc3c2)ccn1,0.703,0.812,0.744,0.659
CC(C)(C)c1ccc(S(=O)(=O)/C=C/C#N)cc1,0.119,0.091,0.0418,0.0217
Cc1cn(-c2cc(NC(=O)c3ccc(C)c(Nc4nccc(-c5cccnc5)n4)c3)cc(C(F)(F)F)c2)cn1 [Nilotinib (AMN-107)],1.42,1.08,1.28,1.05
NC(=O)c1ccc(-c2nc(-c3ccccn3)c(-c3ccc4c(c3)OCO4)[nH]2)cc1,1.32,1.08,1.16,0.957
C[C@@H](O[C@H]1OCCN(Cc2n[nH]c(=O)[nH]2)[C@H]1c1ccc(F)cc1)c1cc(C(F)(F)F)cc(C(F)(F)F)c1 [Aprepitant],0.974,1.02,0.426,0.723

Compound,fractional viability [1],fractional viability [2],fractional viability [3],fractional viability [4]
CCCNC(=O)Nc1ccc(Oc2ncnc3cc(OC)c(OC)cc23)cc1Cl,1.08,1.12,1.07,1.06
CCCN(CCC)CCc1cccc2c1CC(=O)N2 [Ropinirole HCl],0.814,1.09,0.765,1.1
NC(=O)c1cccc(-c2cccc(OC(=O)NC3CCCCC3)c2)c1,1.01,1.13,0.989,1.06
CC(=O)O[C@H]1C(=O)[C@@]2(C)[C@H]([C@H](OC(=O)c3ccccc3)[C@]3(O)C[C@H](OC(=O)[C@H](O)[C@@H](NC(=O)c4ccccc4)c4ccccc4)C(C)=C1C3(C)C)[C@]1(OC(C)=O)CO[C@@H]1C[C@@H]2O [Paclitaxel],0.266,0.246,0.309,0.349
CN1CCC(Nc2nc(Nc3ccc(Oc4ccccc4)cc3)c3c(=O)[nH]cc(Br)c3n2)CC1,0.131,0.279,0.0286,0.0109
Cn1cnc2c(F)c(Nc3ccc(Br)cc3F)c(C(=O)NOCCO)cc21,0.395,0.437,0.243,0.229
C#Cc1cccc(Nc2ncnc3cc(OCCOC)c(OCCO)cc23)c1,1.01,1.09,0.503,0.545
CC(C)C[C@H](NC(=O)[C@H](Cc1ccccc1)C[C@@H](O)[C@H](Cc1ccccc1)NC(=O)OC(C)(C)C)C(=O)N[C@@H](Cc1ccccc1)C(N)=O,0.749,0.909,0.627,0.653
Nc1nc(N)c(N=O)c(OCC2CCCCC2)n1,0.823,1.12,0.544,0.681
COc1cc2nc(N3CCCC3)nc(NCCCCCN3CCCC3)c2cc1OC,0.426,0.543,0.0312,0.0156
NC(=O)c1cnccn1 [Pyrazinamide],1.03,1.01,0.872,1.06
CSc1nc2cc(Cl)c(Oc3cccc(Cl)c3Cl)cc2[nH]1 [Triclabendazole],1.14,1.11,0.734,0.933
Nc1ccc(-c2ccc3ncc4ccc(=O)n(-c5cccc(C(F)(F)F)c5)c4c3c2)cn1 [Torin 2],0.125,0.114,0.114,0.0945
Cc1cnc(-c2ccccc2C(C)C)nc1NCc1ccc(-n2ccnn2)cc1,1.11,0.946,0.849,0.679
CCCCCCCCCCCCCCCCn1cc[n+](Cc2ccccc2)c1C,0.134,0.104,0.0139,0.00629
CC1(C)S[C@@H]2[C@H](NC(=O)[C@H](N)c3ccccc3)C(=O)N2[C@H]1C(=O)O [Ampicillin Trihydrate],0.814,1.07,0.873,0.987
CC1(C)S[C@@H]2[C@H](NC(=O)[C@H](N)c3ccccc3)C(=O)N2[C@H]1C(=O)O [Ampicillin sodium],1.06,1.2,0.863,1.12
Cc1ccccc1C(C(=O)NC1CCCCC1)N(C(=O)Cn1ccnc1C)c1cccc(F)c1 (configuration not stated),0.86,1.02,0.801,1.01
O=C(O)c1cc(=O)[nH]c(=O)[nH]1 [Orotic acid (6-Carboxyuracil)],0.916,1.04,1.02,1.12
